The campaign covered roughly 420,000 compounds. About 64,000 (15%) were called active. This list was built around the results that the source calls inconclusive (neither active nor inactive); the mix of calls is not that of the screen. The call rests on the fitted dose curve; in most records, active means well fitted inhibition curve with a large enough effect; inconclusive means small, poorly fitted or top-dose-only effect; inactive means flat fitted curve, though single readings scatter. Where the call is inconclusive, the potency comes from a doubtful curve fit.
experiment: qHTS for Inhibitors of human tyrosyl-DNA phosphodiesterase 1 (TDP1): qHTS in cells in absence of CPT; settings: DT40 Tdp1-/- hTDP1 cells, no CPT, ATP luminescence, 48 h; activity change, negative = growth inhibition: at 46.2 µM (top of the series) unless noted; further: nearly all actives have a fitted effect of over 55% in size
Method in brief: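 Luminescent ATP content (CellTiter-Glo) served as the growth readout. Knockout chicken DT40 cells expressing human TDP1 were exposed to compounds without camptothecin for a minimum 48 hr at 37 °C.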
On the % scale 0 is the no-effect control and ±100 the full control effect; potency means the concentration at half of the fitted maximal effect; tags describe the fitted curve by direction and shape.

Structure (SMILES)	Potency	activity change, negative = growth inhibition
O=C(c1ccccc1F)N1CCC2CC1c1cc(-c3ccc4c(c3)OCO4)ccc12 (stereo not given)	active: 20.6 µM	
COc1ccc(/C=C2/SC(=O)N(CCNC(=O)C3CC(=O)N(Cc4ccccc4)C3)C2=O)cc1 (stereo not given)	inconclusive: 29.1 µM [inhibitor, single point]	
O=C(Nc1ccccc1Cl)c1cc(C2CCCN(C(=O)c3ccccc3)C2)on1 (stereo not given)	inconclusive: 16.4 µM [inhibitor, single point]	
Cc1ccc(CCS(=O)(=O)c2ccc(C(C)(C)C)cc2)cn1	inconclusive: 23.1 µM [inhibitor, single point]	
CCOC(=O)[C@]12CCCC=C1N(Cc1cccc3ccccc13)C(=O)[C@H](CC(=O)NCCc1ccccc1OC)C2	inconclusive: 18.4 µM [inhibitor, single point]	
O=C(Cc1ccccc1F)Nc1nc(-c2cccnc2)cs1	inconclusive: 8.2 µM [inhibitor, partial curve]	
C=CCNC(=O)COc1coc(CN2CCN(Cc3ccccc3)CC2)cc1=O	inactive	
CN1CCN(CCCNC(=O)c2ccc3c(c2)N(Cc2ccc(F)cc2)CCS3)CC1	inconclusive: 20.6 µM [inhibitor, partial curve]	
O=C(CCN1CCC(c2ccccc2)C1)c1cccs1 (stereo not given)	active: 2.59 µM	
COc1ccc2ccc(C(C)(C(C)=O)C(=O)OC(C)C)cc2c1 (stereo not given)	inconclusive: 23.1 µM [inhibitor, single point]	
Cc1ccc(S(=O)(=O)N(C)CC(=O)N2CCN(Cc3ccccc3)CC2)cc1	inactive	
CCCCN1CC(=O)N2[C@H](c3ccc(OC)cc3)[C@@H]3C(=O)N(CC)C(=O)[C@@H]3[C@]2(C)C1=O	inactive	
Nc1c(C(=O)NCc2ccccc2)nnn1Cc1cccc(Br)c1	active: 5.8 µM	
Cc1ccc(Sc2cc(C(F)(F)F)nc(N(C)C)n2)cc1	inconclusive: 23.1 µM [inhibitor, single point]	
O=C(NC(c1ccc(-c2ccccc2)cc1)c1cnccn1)C1CCN(CCOc2ccc(F)cc2)CC1 (stereo not given)	inconclusive: 29.1 µM [inhibitor, partial curve, poor fit]	
CC(C)(C)C1=NN=C2c3ccccc3C(=O)C21 (stereo not given)	inconclusive: 25.9 µM [inhibitor, single point]	
CCOC(=O)C1CCN(c2c(-c3ccccc3)c3cc(Cl)ccc3[nH]c2=O)CC1	inconclusive: 29.1 µM [inhibitor, single point]	
COc1ccc2c(Cl)c(-c3nnc4n3CCCCC4)sc2c1	inconclusive: 29.1 µM [inhibitor, single point]	
CC1Cc2ccccc2N1C(=O)COC(=O)CCc1nc2ccccc2c(=O)[nH]1 (stereo not given)	active: 18.4 µM	
CC(=O)c1ccc(N2CCN(C(=O)c3ccccc3SCC(=O)NCc3ccco3)CC2)c(F)c1	inconclusive: 18.4 µM [inhibitor, single point]	
CSc1ccc(CCNC(=O)c2cc3c(-c4ccccc4F)nn(C)c3s2)cc1	inconclusive: 14.6 µM [inhibitor, partial curve, poor fit]	
COCCCN=Cc1c(-c2ccccc2)[nH]n(-c2nc3ccccc3s2)c1=O	inconclusive: 29.1 µM [inhibitor, single point]	
Cc1cc(C)cc(Nc2nc3c(S(=O)(=O)c4cccc(Cl)c4)nnn3c3ccsc23)c1	inactive	
CC(=O)c1cccc(NC(=S)N2c3ccccc3CC2C)c1 (stereo not given)	inactive	

Structure (SMILES)	Potency	activity change, negative = growth inhibition
COc1cc(CCNC(=O)c2cnn3ccccc23)cc(OC)c1OC	inconclusive: 20.6 µM [inhibitor, single point]	
CC(C)c1cc(NCCOCCO)n2c(nc3ccccc32)c1C#N	inconclusive: 18.4 µM [inhibitor, partial curve]	
CCOC(=O)c1c(-c2ccc(C)c(C)c2)csc1NC(=O)C1CC=CCC1C(=O)O (stereo not given)		inconclusive: -30.1% [inhibitor]
c1ccc2nc(N3CCOCC3)c(N3CCCC3)nc2c1	inactive	
O=C(OCCOCCN=C1NS(=O)(=O)c2ccccc21)c1ccc(F)cc1	inactive	
CC(C)[C@H]1COCCS(=O)(=O)N1Cc1cccc(Cl)c1	active: 11.2 µM	
COc1cc(C2c3c(oc4ccccc4c3=O)C(=O)N2Cc2ccco2)ccc1O (stereo not given)	inactive	
CSc1cnc2c(N)nc(N(C)C)nc2n1		inconclusive: -30.7% [inhibitor]
CCOC(=O)c1sc(NC(=O)CSc2nc(-c3ccco3)cc(C(F)(F)F)n2)c(C(=O)OC)c1C	inactive	
CCc1ccc(NC(=O)CSc2nc(=O)n(CCCN(C)C)c3c2CCC3)cc1	inactive	
O=C(CN(C(=O)c1csnn1)c1ccc(Cl)cc1)NCCc1ccccc1	inactive	
CCCCc1oc2ccccc2c1C(=O)c1cc(I)c(OCCN(CC)CC)c(I)c1	inconclusive: 24.1 µM [inhibitor, single point] [middle of 5 runs]	
CCN(CC)S(=O)(=O)c1ccc(OC)c(NC(=S)Nc2cccc(C)c2C)c1	inconclusive: 29.1 µM [inhibitor, single point]	
CC(=O)Nc1ccc(C(=O)CSc2nnc3ccc4ccccc4n23)cc1	inconclusive: 20.6 µM [inhibitor, single point]	
CCN(CC)CCCNC(=O)CCc1ccccc1	inactive	
CCCc1nc2ccc(Br)cn2c1Cc1ccccc1	active: 2.91 µM	
CC(=O)c1c(O)c2ccccc2n(C2CCCCC2)c1=O	inconclusive: 23.1 µM [inhibitor, single point]	
O=C(NCc1ccccn1)c1cc(S(=O)(=O)N2CCCCCC2)ccc1Cl	inconclusive: 23.1 µM [inhibitor, single point]	
CCOc1ccc(NC(=O)NCCN2CCN(c3ccccc3F)CC2)cc1	inconclusive: 6.51 µM [inhibitor, partial curve, poor fit]	
O=S(=O)(NCc1ccc(Cl)cc1)c1ccc(N2CCCCS2(=O)=O)cc1	active: 8.2 µM	
COc1cc2cc(C(=O)N/N=C/c3ccc(F)cc3)[nH]c2cc1OC	inactive	
COc1ccccc1N(O)C1CC(=O)N(c2ccc(Br)cc2)C1=O (stereo not given)	inconclusive: 29.1 µM [inhibitor, single point]	
COc1ccc(Cn2c(O)c(/C=N/NC(=O)c3cccnc3)c3ccccc3c2=O)cc1	active: 23.1 µM	
O=C(CN(Cc1ccco1)S(=O)(=O)c1ccccc1)N/N=C/c1cccc(O)c1	inconclusive: 20.6 µM [inhibitor, single point]	

Structure (SMILES)	Potency	activity change, negative = growth inhibition
Cc1cc(C(=O)CCC(=O)NCC(=O)Nc2c(C)cccc2C)c(C)s1	inconclusive: 29.1 µM [inhibitor, single point]	
Cc1ccccc1OCCC(=O)N(CC(C)C)c1c(N)n(Cc2ccccc2)c(=O)[nH]c1=O	inactive	
COc1cccc(NC(=O)c2ccc(-c3nc(COc4ccc(C)cc4)c(C)o3)cc2)c1	inconclusive: 20.6 µM [inhibitor, partial curve]	
Cc1ccc(NC(=O)CCCNC(=O)c2ccc(Cl)cc2)cc1S(=O)(=O)N1CCCCC1	inconclusive: 25.9 µM [inhibitor, single point]	
COc1ccc(C(=O)OCC(=O)NCC2CCCCC2)cc1F	inactive	
COc1ccccc1NC(CC(=O)c1ccccc1)C(=O)OCC(=O)c1ccc(C)c(C)c1 (stereo not given)	active: 16.4 µM	
CCN(CC)c1ccc(C(=O)OCC(=O)N(C(C)C)C(C)C)cc1	inconclusive: 20.6 µM [inhibitor, single point]	
O=C(c1ccccc1)N1CCN(c2ccc([N+](=O)[O-])c(NCc3cccnc3)c2)CC1	inconclusive: 18.4 µM [inhibitor, single point]	
Cc1ccc(S(=O)(=O)N2CCN(C(=O)c3cc(S(=O)(=O)N(C)C)ccc3N3CCCC3)CC2)c(C)c1	active: 16.4 µM	
Cc1ccc2nc3c(nc2c1C)C(O)=C3O	inconclusive: 29.1 µM [inhibitor, single point]	
N#CC(c1ccccc1)N(CCCCl)C(=O)c1ccccc1 (stereo not given)	inconclusive: 13 µM [inhibitor, partial curve]	
Cc1nc(SCC(=O)NC2CCCC2)c2c(C)c(C)sc2n1	inactive	
CCN1CCN(c2ccc(S(=O)(=O)N3CCOCC3)cc2NC(=O)C(C)Oc2ccc(Cl)cc2)CC1 (stereo not given)	active: 18.4 µM	
Cc1cccc(-n2ncc3c(NCCCn4ccnc4)ncnc32)c1		inconclusive: -31.6% [inhibitor]
Cc1cc(=O)n2nc(N3CCC(C(=O)Nc4ccc(Br)cc4F)CC3)sc2n1	inactive	
O=C1C2C(c3ccccc3)CC=CC2[C@H](c2ccc(C(F)(F)F)cc2)N1Cc1ccccc1 (stereo not given in full)	inconclusive: 23.1 µM [inhibitor, single point]	
Cc1ccc2c(c1)c1c(c(=O)n(-c3ccccc3C)c(=O)n1CC(=O)NCC1CCCO1)n2C (stereo not given)	inconclusive: 29.1 µM [inhibitor, single point]	
CC(C)C[C@@H](CN1CCCC1CN1C(=S)NC[C@@H]1Cc1ccccc1)N1C[C@H](Cc2ccccc2)N(CC2CCCCC2)C1=S (stereo not given in full)	inconclusive: 20.6 µM [inhibitor, single point]	
Cc1cccc(C(=O)n2c(=S)nc3ccccn32)c1	inconclusive: 25.9 µM [inhibitor, single point]	
Nn1c(SCc2ccc(Br)cc2)nnc1-c1ccccn1	inconclusive: 0.0184 µM [inhibitor, full curve, poor fit]	
CC1=CC2=NC(=O)/C(=C/c3cccn3Cc3ccccc3)C(=N)N2O1		inconclusive: -32.6% [inhibitor]
Cc1ccc(C(O)c2ncc(-c3cccc4ccccc34)[nH]2)c(C)c1 (stereo not given)	inconclusive: 29.1 µM [inhibitor, single point]	

— PubChem BioAssay AID686978 (National Center for Advancing Translational Sciences (NCATS), 2013)
